# Laboratory results taken from PubChem BioAssay (Tox21).
# The inconclusive results got no clear call from the source; some entries with a clear call stand among them for comparison. For part of these data: Potencies beside an inconclusive call are fits to weak or partial responses and may not hold up. Calls of active or inactive are those of the source. Unless noted, calls follow the shape of the dose curve; as a rule, active = well fitted curve in the direction sought with a large enough effect in the repeat runs; inconclusive = weak or mixed curves; inactive = no such curve, though single readings can be large; an effect the other way counts as inactive or inconclusive.
# Columns and labels:
# [1] = system: estrogen-related receptor alpha (ERRalpha) with PGC-1alpha coactivator, human; test: qHTS assay to identify small molecule antagonists of the estrogen related receptor signaling pathway with the pleiotropic PPARgamma coactivator (PGC) (AID 1224821; calls by dose curve; also: potency is read from the fitted curve at half-maximal effect; nearly all actives have a fitted effect of over 50% in size); conditions: ERR/PGC reporter cell line, luciferase, antagonist mode; series mostly up to 46.1 µM
# Outline: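 Luminescent read-out (One-Glo, 30 min at room temperature) following 18 h treatment of PGC/ERR cells at 37 C with compounds delivered in DMSO. Cells had settled 6 h at 37 C/5% CO2 before dosing.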
# [2] = qHTS assay to identify small molecule agonists of the estrogen related receptor signaling pathway with the pleiotropic PPARgamma coactivator (PGC) (AID 1224823); conditions: ERR/PGC reporter cell line, luciferase agonist mode; series mostly up to 46.1 µM
# Outline: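 Steps: plate PGC/ERR cells at 2,000 cells/well; incubate 6 h, 37 C/5% CO2; pin-transfer compounds (DMSO); incubate 18 h, 37 C; add One-Glo; 30 min RT; read luminescence.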
# [3] = A CellTox Green Cytotoxicity Assay to monitor cytotoxicity in HepG2 cells - 0 hour (AID 1224882); conditions: CellTox Green fluorescence; also: potency is read from the fitted curve at half-maximal effect; nearly all actives have a fitted effect of over 35% in size
# Outline: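 HepG2 cells, 600/well, preincubated 5 h with CellTox Green dye, then exposed to Tox21 compounds in DMSO at 37 C for up to 40 h. Dead-cell DNA fluorescence read at the indicated time point.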
# Tags tell the direction and shape of the fitted curve.
SMILES,Potency [1],Potency [2],Potency [3]
CC(=O)[C@H]1CC[C@H]2[C@@H]3CC[C@H]4C[C@H](O)CC[C@]4(C)[C@H]3C(=O)C[C@]12C,"inconclusive: 26.6 µM [inhibitor, single point]",inactive,
O=C(NC(=O)c1cc(F)c(F)cc1Cl)Nc1cc(F)ccc1N1CCC(C(=O)O)CC1,,,"inconclusive: 10.7 µM [activator, single point]"
